B1: PhoQ; a variant is named by its letters at X, in order, P23837 (parent)
chain: MKKLLRLFFPLSLRVRFLLATAAVVLVLSLAYGMVALIGYSVSFDKTTFRLLRGESNLFYTLAKWENNKLHVELPENIDKQSPTMTLIYDENGQLLWAQRDVPWLMKMIQPDWLKSNGFHEIEADVNDTSLLLSGDHSIQQQLQEVREDDDDAEMTHSVAVNVYPATSRMPKLTIVVVDTIPVELKSSYMVWSWFIYVLSANLLLVIPLLWVAAWWSLRPIEALAKEVRELEEHNRELLNPATTRELTSLVRNLNRLLKSERERYDKYRTTLTDLTHSLKTPLXXLQXXLRSLRSEKMSVSDAEPVMLEQISRISQQIGYYLHRASMRGGTLLSRELHPVAPLLDNLTSALNKVYQRKGVNISLDISPEISFVGEQNDFVEVMGNVLDNACKYCLEFVEISARQTDEHLYIVVEDDGPGIPLSKREVIFDRGQRVDTLRPGQGVGLAVAREITEQYEGKIVAGESMLGGARMEVIFGRQHSAPKDE

For 195 variants, enrichment ratio results are on record in a collection of fitness landscapes (doi:10.1126/science.1257360).

Some of the results follow.

Variants of B1 are the subject of the assay. Briefly: enrichment ratio after two sorts for PhoP signalling (ratio (wild type AVST 3.29)); higher = more functional. The following applies: with PhoP (E. coli).
Regarding GIAC, the enrichment ratio stood at 11.8.

Take YQVC: the enrichment ratio worked out at 0.339.

For the variant YRIA, the enrichment ratio was ≤ 0.25.

As for IGDV, the enrichment ratio is ≤ 0.25.

Regarding QMGQ, the enrichment ratio was ≤ 0.25.

In the case of RSLM, the enrichment ratio was ≤ 0.25.

For TIWA, the enrichment ratio is ≤ 0.25.

For the variant TCIC, the enrichment ratio was ≤ 0.25.

For the variant VDRG, the enrichment ratio is ≤ 0.25.

In the case of RQGA, the enrichment ratio is ≤ 0.25.

In the case of MNYS, the enrichment ratio is ≤ 0.25.

For the variant DTIF, the enrichment ratio was ≤ 0.25.

For the variant LHCR, the enrichment ratio was ≤ 0.25.

In the case of HFFR, the enrichment ratio was ≤ 0.25.

For PQGN, the enrichment ratio is ≤ 0.25.

For KMPA, the enrichment ratio was ≤ 0.25.

As to MNVE, the enrichment ratio was ≤ 0.25.

Turning to REKI, the enrichment ratio was ≤ 0.25.

Regarding NGCA, the enrichment ratio was ≤ 0.25.

Turning to DHYV, the enrichment ratio was ≤ 0.25.

As for DGDL, the enrichment ratio is ≤ 0.25.

With EMLP, the enrichment ratio is ≤ 0.25.

For TSTD, the enrichment ratio was ≤ 0.25.

As to WKWS, the enrichment ratio was ≤ 0.25.

Take AQMA: the enrichment ratio is 0.83.

In the case of MGQV, the enrichment ratio was ≤ 0.25.

Turning to MKHD, the enrichment ratio was ≤ 0.25.

Consider QDVL, for which the enrichment ratio is ≤ 0.25.

With QDHE, the enrichment ratio was ≤ 0.25.

As to GLYD, the enrichment ratio is ≤ 0.25.

HHEW: the enrichment ratio is ≤ 0.25.

Consider GVVR, for which the enrichment ratio was ≤ 0.25.

Regarding ANDD, the enrichment ratio is ≤ 0.25.

Take KNWN: the enrichment ratio is ≤ 0.25.

For the variant KHWN, the enrichment ratio is ≤ 0.25.

Take MCAF: the enrichment ratio stood at 32.1.

Turning to KSGE, the enrichment ratio was ≤ 0.25.

Regarding SGVA, the enrichment ratio stood at 19.

As to PDMV, the enrichment ratio is ≤ 0.25.

AKPL: the enrichment ratio was ≤ 0.25.

On to SEEC, for which the enrichment ratio came out at 15.4.

On to WEPL, for which the enrichment ratio is ≤ 0.25.

EQHW: the enrichment ratio was ≤ 0.25.

In the case of IAQN, the enrichment ratio was ≤ 0.25.

On to QVIN, for which the enrichment ratio is ≤ 0.25.

On to ACPP, for which the enrichment ratio is ≤ 0.25.

As to RHVR, the enrichment ratio is ≤ 0.25.

For TCKN, the enrichment ratio was ≤ 0.25.

As for ACPC, the enrichment ratio is ≤ 0.25.

Take NDHL: the enrichment ratio was ≤ 0.25.

As for TIWH, the enrichment ratio was ≤ 0.25.

For RRRW, the enrichment ratio is ≤ 0.25.

Regarding SINK, the enrichment ratio turned out to be 1.25.

Turning to YGTI, the enrichment ratio turned out to be 1.34.

Take VKIW: the enrichment ratio was ≤ 0.25.

Consider VSLI, for which the enrichment ratio came to 14.

YSKE: the enrichment ratio is ≤ 0.25.

In the case of LKVH, the enrichment ratio is ≤ 0.25.

For the variant FEYK, the enrichment ratio is ≤ 0.25.

Turning to YDVQ, the enrichment ratio was ≤ 0.25.

Regarding WRRF, the enrichment ratio was ≤ 0.25.

YDFY: the enrichment ratio was ≤ 0.25.

NSFD: the enrichment ratio is ≤ 0.25.

As for DMCG, the enrichment ratio was ≤ 0.25.

Take ICGA: the enrichment ratio is ≤ 0.25.

As for EMYP, the enrichment ratio is ≤ 0.25.

As for EVEW, the enrichment ratio is ≤ 0.25.

Turning to GTTL, the enrichment ratio stood at 11.7.

For QGHK, the enrichment ratio was ≤ 0.25.

With WPVV, the enrichment ratio was ≤ 0.25.

For the variant RHFA, the enrichment ratio is ≤ 0.25.

Regarding QHSR, the enrichment ratio is ≤ 0.25.

GHCV: the enrichment ratio is ≤ 0.25.

Turning to IEPF, the enrichment ratio was ≤ 0.25.

Turning to KGLT, the enrichment ratio is ≤ 0.25.

Turning to WWTC, the enrichment ratio was ≤ 0.25.

With VGCY, the enrichment ratio turned out to be 2.46.

In the case of NNAP, the enrichment ratio was ≤ 0.25.

As to RKIP, the enrichment ratio is ≤ 0.25.

Turning to WENT, the enrichment ratio is ≤ 0.25.

YTRE: the enrichment ratio is ≤ 0.25.

As to SYGY, the enrichment ratio is ≤ 0.25.

With WCMQ, the enrichment ratio is ≤ 0.25.

As to INLE, the enrichment ratio is ≤ 0.25.

On to DAYQ, for which the enrichment ratio was ≤ 0.25.

Turning to YFAE, the enrichment ratio is ≤ 0.25.

For the variant GDHG, the enrichment ratio was ≤ 0.25.

Take LHIG: the enrichment ratio was ≤ 0.25.

For FFVA, the enrichment ratio is ≤ 0.25.

Turning to FFKS, the enrichment ratio was ≤ 0.25.

Regarding GQQS, the enrichment ratio was ≤ 0.25.

On to FQKP, for which the enrichment ratio was ≤ 0.25.

For TTCG, the enrichment ratio came to 30.3.

For MNWN, the enrichment ratio is 15.4.

On to GVLD, for which the enrichment ratio was ≤ 0.25.

Take ETHI: the enrichment ratio is ≤ 0.25.

KDMG: the enrichment ratio was ≤ 0.25.

As to FQHY, the enrichment ratio is ≤ 0.25.

On to YQLR, for which the enrichment ratio is ≤ 0.25.

SNML: the enrichment ratio was 15.9.

For the variant MPVN, the enrichment ratio was ≤ 0.25.

On to DVFT, for which the enrichment ratio was ≤ 0.25.

With RCFR, the enrichment ratio is ≤ 0.25.

In the case of AQQD, the enrichment ratio is ≤ 0.25.

Regarding TERH, the enrichment ratio was ≤ 0.25.

With IQIF, the enrichment ratio is ≤ 0.25.

Regarding TKVN, the enrichment ratio came out at 2.64.

Regarding PSPS, the enrichment ratio was ≤ 0.25.

HSFH: the enrichment ratio was ≤ 0.25.

For GIFP, the enrichment ratio was ≤ 0.25.

Consider HPRV, for which the enrichment ratio is ≤ 0.25.

Turning to KTAV, the enrichment ratio is ≤ 0.25.

As for WDYF, the enrichment ratio was ≤ 0.25.

For the variant VGAP, the enrichment ratio is ≤ 0.25.

Take RAIA: the enrichment ratio was ≤ 0.25.

Turning to HPVI, the enrichment ratio was ≤ 0.25.

On to MILR, for which the enrichment ratio stood at 0.712.

QKYP: the enrichment ratio was ≤ 0.25.

On to VGQP, for which the enrichment ratio is ≤ 0.25.

On to RCYM, for which the enrichment ratio was ≤ 0.25.

As to DIFV, the enrichment ratio is ≤ 0.25.

As to DAMW, the enrichment ratio was ≤ 0.25.

In the case of WFKP, the enrichment ratio was ≤ 0.25.

With QVAA, the enrichment ratio is ≤ 0.25.

Turning to LAWP, the enrichment ratio stood at 0.808.

As to WWPD, the enrichment ratio was ≤ 0.25.

Regarding MHHV, the enrichment ratio was ≤ 0.25.

Consider NWHE, for which the enrichment ratio was ≤ 0.25.

Consider IKSH, for which the enrichment ratio is ≤ 0.25.

Regarding NQVW, the enrichment ratio is ≤ 0.25.

With EMTV, the enrichment ratio is ≤ 0.25.

As to ICWG, the enrichment ratio was ≤ 0.25.

Consider GSPS, for which the enrichment ratio is ≤ 0.25.

On to YCPY, for which the enrichment ratio was ≤ 0.25.

Turning to MPMN, the enrichment ratio is ≤ 0.25.

Turning to EPFL, the enrichment ratio is ≤ 0.25.

For the variant VQQC, the enrichment ratio is ≤ 0.25.

KVSF: the enrichment ratio was ≤ 0.25.

Turning to ATQV, the enrichment ratio is ≤ 0.25.

For the variant GWKG, the enrichment ratio was ≤ 0.25.

For PHKI, the enrichment ratio is ≤ 0.25.

Regarding VKLD, the enrichment ratio was ≤ 0.25.

With NPTQ, the enrichment ratio was ≤ 0.25.

For the variant FIMA, the enrichment ratio is ≤ 0.25.

As to ENRW, the enrichment ratio was ≤ 0.25.

Turning to SMAA, the enrichment ratio came to 6.43.

In the case of PNMS, the enrichment ratio was ≤ 0.25.

Consider GLLM, for which the enrichment ratio came to 9.19.

Consider FFEL, for which the enrichment ratio is ≤ 0.25.

For the variant GPNV, the enrichment ratio is ≤ 0.25.

Regarding NHHP, the enrichment ratio is ≤ 0.25.

For the variant AGEF, the enrichment ratio was ≤ 0.25.

As for VCLS, the enrichment ratio turned out to be 4.69.

On to GNFG, for which the enrichment ratio is ≤ 0.25.

For SMMW, the enrichment ratio is ≤ 0.25.

DRWQ: the enrichment ratio is ≤ 0.25.

Turning to VIWY, the enrichment ratio is ≤ 0.25.

For the variant FSVA, the enrichment ratio was ≤ 0.25.

With VWDS, the enrichment ratio is ≤ 0.25.

On to ATRT, for which the enrichment ratio was ≤ 0.25.

In the case of WDEM, the enrichment ratio was ≤ 0.25.

Turning to DMWR, the enrichment ratio was ≤ 0.25.

Turning to WRAS, the enrichment ratio was ≤ 0.25.

Turning to FRFG, the enrichment ratio was ≤ 0.25.

On to KSAL, for which the enrichment ratio was ≤ 0.25.

For IGSM, the enrichment ratio was ≤ 0.25.

For MDPF, the enrichment ratio was ≤ 0.25.

As to DFSH, the enrichment ratio is ≤ 0.25.

On to TNMV, for which the enrichment ratio was found to be 12.6.

Take GYIW: the enrichment ratio was ≤ 0.25.

On to AYKK, for which the enrichment ratio was ≤ 0.25.

As for HDQI, the enrichment ratio was ≤ 0.25.

EKYR: the enrichment ratio is ≤ 0.25.

On to CYFF, for which the enrichment ratio was ≤ 0.25.

For the variant HLFD, the enrichment ratio was ≤ 0.25.

Turning to YNHN, the enrichment ratio is ≤ 0.25.

On to RESH, for which the enrichment ratio was ≤ 0.25.

For KSRY, the enrichment ratio is ≤ 0.25.

Turning to YMWY, the enrichment ratio was ≤ 0.25.

For DGQK, the enrichment ratio was ≤ 0.25.

For the variant RLRP, the enrichment ratio was ≤ 0.25.

As to FPCS, the enrichment ratio was ≤ 0.25.

Take FAHS: the enrichment ratio is ≤ 0.25.

Consider RLKI, for which the enrichment ratio is ≤ 0.25.

With RDLY, the enrichment ratio was ≤ 0.25.

Turning to YQDW, the enrichment ratio is ≤ 0.25.

In the case of EQPP, the enrichment ratio is ≤ 0.25.

As for DYNY, the enrichment ratio is 1.23.

In the case of TTTV, the enrichment ratio worked out at 11.

On to NESD, for which the enrichment ratio was ≤ 0.25.

Regarding YFWE, the enrichment ratio was ≤ 0.25.

As for NPND, the enrichment ratio is ≤ 0.25.

As for WNVR, the enrichment ratio is ≤ 0.25.

For MGTH, the enrichment ratio was ≤ 0.25.

Take VHIT: the enrichment ratio is ≤ 0.25.
